These are yes or no findings as the source states them, for the method shown. For some assays here: Binding seen in cells or lysates may run through a third protein. Some entries that bind do so weakly or less than the wild type. For some assays here: Tags and fused reporters may be left off the sequences shown.
T1: C-terminally Flag-tagged TRIP4^Δ403-581 (human) (UniProt Q15650)
T1 sequence: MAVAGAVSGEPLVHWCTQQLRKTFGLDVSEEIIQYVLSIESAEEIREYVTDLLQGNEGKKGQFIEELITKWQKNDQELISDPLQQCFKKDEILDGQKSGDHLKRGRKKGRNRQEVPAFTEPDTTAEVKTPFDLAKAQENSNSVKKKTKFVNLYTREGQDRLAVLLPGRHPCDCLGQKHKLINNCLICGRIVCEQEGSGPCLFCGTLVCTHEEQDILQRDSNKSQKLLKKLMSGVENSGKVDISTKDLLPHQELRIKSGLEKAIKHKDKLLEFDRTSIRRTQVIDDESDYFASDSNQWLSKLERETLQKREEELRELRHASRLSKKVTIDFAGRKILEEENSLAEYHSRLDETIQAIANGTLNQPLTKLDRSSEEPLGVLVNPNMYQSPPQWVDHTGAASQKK

Amino acid sequences for entries named in this document (tags omitted). A change or cut given only in a name is not applied to a line headed by its entry. Residues count along the entry.
UniProt Q8N3C0: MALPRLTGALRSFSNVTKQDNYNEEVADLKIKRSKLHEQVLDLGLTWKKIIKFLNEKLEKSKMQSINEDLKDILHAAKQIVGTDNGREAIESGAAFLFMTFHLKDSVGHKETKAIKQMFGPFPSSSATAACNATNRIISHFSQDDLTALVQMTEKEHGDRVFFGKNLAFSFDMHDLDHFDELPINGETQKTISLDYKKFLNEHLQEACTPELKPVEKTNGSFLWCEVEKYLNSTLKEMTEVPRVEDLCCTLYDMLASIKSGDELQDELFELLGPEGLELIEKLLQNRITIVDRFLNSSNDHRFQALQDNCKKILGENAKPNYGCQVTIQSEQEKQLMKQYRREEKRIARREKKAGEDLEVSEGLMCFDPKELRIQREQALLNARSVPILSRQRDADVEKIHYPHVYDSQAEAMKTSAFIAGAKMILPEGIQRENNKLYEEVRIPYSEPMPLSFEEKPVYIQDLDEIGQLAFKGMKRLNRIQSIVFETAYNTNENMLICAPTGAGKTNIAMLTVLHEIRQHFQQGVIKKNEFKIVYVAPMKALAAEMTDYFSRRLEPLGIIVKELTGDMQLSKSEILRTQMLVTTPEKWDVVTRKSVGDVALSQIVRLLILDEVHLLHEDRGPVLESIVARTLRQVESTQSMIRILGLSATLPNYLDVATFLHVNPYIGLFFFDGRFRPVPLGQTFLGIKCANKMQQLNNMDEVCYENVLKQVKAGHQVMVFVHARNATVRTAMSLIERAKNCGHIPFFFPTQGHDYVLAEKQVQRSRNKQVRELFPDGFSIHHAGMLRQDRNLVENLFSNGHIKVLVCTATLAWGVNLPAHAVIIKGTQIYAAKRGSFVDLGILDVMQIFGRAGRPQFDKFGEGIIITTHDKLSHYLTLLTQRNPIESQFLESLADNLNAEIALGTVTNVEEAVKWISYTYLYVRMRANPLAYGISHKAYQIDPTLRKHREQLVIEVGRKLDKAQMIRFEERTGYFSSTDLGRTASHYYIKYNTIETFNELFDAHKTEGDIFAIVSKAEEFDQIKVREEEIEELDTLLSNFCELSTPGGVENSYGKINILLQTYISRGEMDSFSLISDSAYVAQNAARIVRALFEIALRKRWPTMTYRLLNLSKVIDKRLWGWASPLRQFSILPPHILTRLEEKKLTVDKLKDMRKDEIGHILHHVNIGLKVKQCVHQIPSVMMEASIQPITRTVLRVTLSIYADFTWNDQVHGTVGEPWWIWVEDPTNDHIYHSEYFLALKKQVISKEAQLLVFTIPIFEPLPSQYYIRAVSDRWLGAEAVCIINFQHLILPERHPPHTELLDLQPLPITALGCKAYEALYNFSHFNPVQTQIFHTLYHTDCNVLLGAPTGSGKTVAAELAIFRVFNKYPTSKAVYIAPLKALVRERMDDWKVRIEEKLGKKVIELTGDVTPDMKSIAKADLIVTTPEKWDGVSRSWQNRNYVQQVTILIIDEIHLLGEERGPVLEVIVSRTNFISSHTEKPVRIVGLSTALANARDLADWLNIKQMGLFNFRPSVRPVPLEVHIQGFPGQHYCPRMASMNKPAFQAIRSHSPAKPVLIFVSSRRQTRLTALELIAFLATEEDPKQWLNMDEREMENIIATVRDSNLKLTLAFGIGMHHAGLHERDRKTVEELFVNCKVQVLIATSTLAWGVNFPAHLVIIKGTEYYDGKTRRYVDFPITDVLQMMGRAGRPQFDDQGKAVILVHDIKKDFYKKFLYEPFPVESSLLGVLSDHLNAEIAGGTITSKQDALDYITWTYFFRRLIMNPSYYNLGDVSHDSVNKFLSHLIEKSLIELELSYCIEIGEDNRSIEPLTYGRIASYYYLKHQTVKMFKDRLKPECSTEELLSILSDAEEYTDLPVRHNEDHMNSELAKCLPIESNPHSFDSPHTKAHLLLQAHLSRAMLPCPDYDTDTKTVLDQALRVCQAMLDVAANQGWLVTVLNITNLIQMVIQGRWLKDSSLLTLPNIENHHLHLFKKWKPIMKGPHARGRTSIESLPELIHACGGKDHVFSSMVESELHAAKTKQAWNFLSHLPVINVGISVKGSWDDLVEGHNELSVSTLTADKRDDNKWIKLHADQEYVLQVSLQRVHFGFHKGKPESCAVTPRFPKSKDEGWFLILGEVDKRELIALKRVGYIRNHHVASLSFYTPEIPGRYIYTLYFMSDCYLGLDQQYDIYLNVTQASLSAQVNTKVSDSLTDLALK
ASCC3 helicase region (ASCC3^HR, residues 401-2202): residues 401-2202 of Q8N3C0

T2: C-terminally Flag-tagged full-length TRIP4 (human) (UniProt Q15650)
T2 sequence: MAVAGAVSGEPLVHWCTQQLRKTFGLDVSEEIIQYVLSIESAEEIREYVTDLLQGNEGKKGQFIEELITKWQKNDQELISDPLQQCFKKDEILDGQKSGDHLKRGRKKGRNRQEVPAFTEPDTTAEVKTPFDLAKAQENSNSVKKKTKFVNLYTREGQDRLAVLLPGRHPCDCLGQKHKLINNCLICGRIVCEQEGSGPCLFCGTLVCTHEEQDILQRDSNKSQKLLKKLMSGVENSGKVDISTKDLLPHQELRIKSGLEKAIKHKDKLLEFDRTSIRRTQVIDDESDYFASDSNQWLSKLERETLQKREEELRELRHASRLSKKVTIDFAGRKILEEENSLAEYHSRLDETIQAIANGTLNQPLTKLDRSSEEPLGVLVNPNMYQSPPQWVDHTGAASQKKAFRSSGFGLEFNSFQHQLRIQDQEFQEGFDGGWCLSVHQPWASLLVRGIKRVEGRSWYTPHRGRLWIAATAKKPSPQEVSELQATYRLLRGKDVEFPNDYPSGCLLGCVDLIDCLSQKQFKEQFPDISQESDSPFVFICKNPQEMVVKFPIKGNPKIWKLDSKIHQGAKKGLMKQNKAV

T3: N-terminally Flag-tagged TRIP4^Δ403-581 (human) (UniProt Q15650)
T3 sequence: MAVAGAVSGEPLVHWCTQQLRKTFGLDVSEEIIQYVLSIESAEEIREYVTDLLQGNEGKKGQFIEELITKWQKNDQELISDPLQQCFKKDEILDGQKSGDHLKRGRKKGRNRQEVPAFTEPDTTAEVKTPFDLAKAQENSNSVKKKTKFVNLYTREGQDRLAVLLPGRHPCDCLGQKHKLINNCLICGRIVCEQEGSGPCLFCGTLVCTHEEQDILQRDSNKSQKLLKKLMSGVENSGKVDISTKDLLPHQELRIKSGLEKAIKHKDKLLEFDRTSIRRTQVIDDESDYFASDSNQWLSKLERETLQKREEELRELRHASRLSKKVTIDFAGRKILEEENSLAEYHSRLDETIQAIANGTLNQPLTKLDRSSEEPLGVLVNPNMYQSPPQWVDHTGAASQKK

T4: C-terminally Flag-tagged TRIP4^Δ1-276 (human) (UniProt Q15650)
T4 sequence: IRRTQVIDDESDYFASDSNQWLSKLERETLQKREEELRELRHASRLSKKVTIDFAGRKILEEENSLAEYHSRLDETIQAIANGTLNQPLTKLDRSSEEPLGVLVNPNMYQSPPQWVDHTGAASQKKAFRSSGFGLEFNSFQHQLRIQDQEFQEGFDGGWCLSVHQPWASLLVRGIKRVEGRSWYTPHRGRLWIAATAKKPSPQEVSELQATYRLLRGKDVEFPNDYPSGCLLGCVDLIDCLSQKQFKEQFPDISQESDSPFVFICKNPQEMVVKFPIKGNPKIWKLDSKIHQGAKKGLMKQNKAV

T5: N-terminally Flag-tagged TRIP4^Δ1-276 (human) (UniProt Q15650)
T5 sequence: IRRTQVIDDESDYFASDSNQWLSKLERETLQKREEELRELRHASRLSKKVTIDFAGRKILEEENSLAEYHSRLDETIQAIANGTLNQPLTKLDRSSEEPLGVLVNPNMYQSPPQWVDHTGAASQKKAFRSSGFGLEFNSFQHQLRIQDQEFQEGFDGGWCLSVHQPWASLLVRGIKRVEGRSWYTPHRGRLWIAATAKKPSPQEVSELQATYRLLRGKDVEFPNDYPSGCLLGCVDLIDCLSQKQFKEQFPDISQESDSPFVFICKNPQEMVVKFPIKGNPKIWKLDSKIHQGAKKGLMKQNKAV

T6: N-terminally Flag-tagged full-length TRIP4 (human) (UniProt Q15650)
T6 sequence: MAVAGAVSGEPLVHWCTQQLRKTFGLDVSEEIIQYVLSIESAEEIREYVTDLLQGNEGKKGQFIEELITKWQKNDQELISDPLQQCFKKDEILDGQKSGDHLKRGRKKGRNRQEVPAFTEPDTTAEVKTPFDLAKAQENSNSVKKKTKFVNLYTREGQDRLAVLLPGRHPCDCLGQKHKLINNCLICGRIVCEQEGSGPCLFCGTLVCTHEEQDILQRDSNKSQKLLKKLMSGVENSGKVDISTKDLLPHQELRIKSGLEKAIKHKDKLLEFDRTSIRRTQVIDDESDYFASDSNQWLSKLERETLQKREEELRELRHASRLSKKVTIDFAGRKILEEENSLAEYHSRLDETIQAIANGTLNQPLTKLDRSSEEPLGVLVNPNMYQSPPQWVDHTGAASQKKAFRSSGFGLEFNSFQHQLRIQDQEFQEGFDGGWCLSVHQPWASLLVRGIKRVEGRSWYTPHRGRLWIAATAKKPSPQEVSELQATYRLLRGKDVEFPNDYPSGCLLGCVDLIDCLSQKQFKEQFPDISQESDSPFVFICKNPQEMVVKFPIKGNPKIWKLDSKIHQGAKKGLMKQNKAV

T7: N-terminally HA-tagged TRIP4^Δ168-219 (human) (UniProt Q15650)
T7 sequence: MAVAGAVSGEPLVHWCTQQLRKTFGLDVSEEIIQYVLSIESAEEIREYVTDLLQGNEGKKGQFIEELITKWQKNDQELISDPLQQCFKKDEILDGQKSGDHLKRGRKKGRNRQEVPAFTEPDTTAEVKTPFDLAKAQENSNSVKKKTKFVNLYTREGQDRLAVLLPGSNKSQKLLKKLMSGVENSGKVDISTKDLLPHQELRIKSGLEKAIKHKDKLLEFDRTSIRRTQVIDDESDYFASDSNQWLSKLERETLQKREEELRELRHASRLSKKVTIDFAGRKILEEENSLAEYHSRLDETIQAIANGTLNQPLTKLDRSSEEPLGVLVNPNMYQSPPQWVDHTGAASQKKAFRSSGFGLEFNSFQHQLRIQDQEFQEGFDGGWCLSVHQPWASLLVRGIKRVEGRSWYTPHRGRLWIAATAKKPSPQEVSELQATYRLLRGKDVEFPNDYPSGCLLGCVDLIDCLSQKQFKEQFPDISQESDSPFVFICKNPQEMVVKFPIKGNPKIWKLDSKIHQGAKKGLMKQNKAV

T8: N-terminally HA-tagged TRIP4^C171A-C184A (human) (UniProt Q15650)
T8 sequence: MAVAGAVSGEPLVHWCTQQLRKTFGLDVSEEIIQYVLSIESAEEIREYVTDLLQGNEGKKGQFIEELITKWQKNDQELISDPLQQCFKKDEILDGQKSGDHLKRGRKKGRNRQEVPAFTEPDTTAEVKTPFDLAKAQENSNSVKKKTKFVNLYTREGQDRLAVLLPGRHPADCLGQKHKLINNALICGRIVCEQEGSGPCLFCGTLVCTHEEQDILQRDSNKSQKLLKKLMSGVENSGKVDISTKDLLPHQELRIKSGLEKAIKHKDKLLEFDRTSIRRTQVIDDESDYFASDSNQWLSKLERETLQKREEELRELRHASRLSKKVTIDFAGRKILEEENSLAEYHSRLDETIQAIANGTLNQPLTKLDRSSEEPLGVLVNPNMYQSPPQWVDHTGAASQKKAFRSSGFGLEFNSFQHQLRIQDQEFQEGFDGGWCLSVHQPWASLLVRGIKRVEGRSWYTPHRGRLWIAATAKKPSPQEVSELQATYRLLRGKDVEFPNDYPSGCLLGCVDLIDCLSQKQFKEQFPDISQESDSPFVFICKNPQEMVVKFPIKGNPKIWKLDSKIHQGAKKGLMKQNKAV

T9: N-terminally HA-tagged wild-type TRIP4 (human) (UniProt Q15650)
T9 sequence: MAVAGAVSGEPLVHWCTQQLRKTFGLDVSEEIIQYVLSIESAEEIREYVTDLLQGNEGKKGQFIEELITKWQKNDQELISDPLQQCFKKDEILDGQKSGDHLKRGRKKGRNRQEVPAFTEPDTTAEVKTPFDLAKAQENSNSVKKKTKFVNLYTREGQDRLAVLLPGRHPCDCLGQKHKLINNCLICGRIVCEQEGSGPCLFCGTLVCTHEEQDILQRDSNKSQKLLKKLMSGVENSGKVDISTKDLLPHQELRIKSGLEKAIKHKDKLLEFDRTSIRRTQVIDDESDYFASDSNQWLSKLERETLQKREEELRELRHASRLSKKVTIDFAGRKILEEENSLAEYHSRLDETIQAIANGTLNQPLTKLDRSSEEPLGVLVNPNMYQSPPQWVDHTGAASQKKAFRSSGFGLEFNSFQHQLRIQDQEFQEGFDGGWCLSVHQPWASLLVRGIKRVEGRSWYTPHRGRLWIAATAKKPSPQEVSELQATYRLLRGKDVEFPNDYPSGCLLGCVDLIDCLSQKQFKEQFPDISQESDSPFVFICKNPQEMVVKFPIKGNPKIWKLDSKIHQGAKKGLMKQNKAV

T10: TRIP4 (activating signal co-integrator 1/thyroid receptor-interacting protein 4), full length, produced in E. coli (human) (UniProt Q15650)
T10 sequence: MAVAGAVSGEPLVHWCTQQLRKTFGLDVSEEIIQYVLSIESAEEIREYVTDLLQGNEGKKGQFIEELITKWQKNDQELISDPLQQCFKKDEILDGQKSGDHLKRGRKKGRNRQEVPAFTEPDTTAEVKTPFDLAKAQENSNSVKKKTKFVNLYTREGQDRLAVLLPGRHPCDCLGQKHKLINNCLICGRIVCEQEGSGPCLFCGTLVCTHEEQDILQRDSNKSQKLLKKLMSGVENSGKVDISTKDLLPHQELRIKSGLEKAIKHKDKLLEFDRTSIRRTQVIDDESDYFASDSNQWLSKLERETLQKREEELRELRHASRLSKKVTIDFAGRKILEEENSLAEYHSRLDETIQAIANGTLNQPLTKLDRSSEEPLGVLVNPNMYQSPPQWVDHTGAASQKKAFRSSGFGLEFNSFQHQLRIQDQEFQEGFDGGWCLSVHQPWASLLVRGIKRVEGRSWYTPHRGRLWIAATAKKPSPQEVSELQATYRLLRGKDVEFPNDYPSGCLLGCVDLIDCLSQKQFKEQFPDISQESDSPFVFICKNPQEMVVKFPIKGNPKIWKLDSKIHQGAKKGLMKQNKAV


Legend:
[1] = target: T1, C-terminally Flag-tagged TRIP4^Δ403-581 (human); experiment: co-IP; Flag/His-tagged TRIP4 variants precipitated from cell lysates with α-Flag-M2 magnetic beads (50 mM Tris-HCl pH 7.4, 150 mM NaCl, 0.5 mM EDTA, 0.1% Triton-X-100, 10% glycerol), eluted with 3xFlag peptide; western blot for ASCC1, ASCC2, ASCC3
[2] = target: T2, C-terminally Flag-tagged full-length TRIP4 (human); experiment: as above
[3] = target: T3, N-terminally Flag-tagged TRIP4^Δ403-581 (human); experiment: as above
[4] = target: T4, C-terminally Flag-tagged TRIP4^Δ1-276 (human); experiment: as above
[5] = target: T5, N-terminally Flag-tagged TRIP4^Δ1-276 (human); experiment: as above
[6] = target: T6, N-terminally Flag-tagged full-length TRIP4 (human); experiment: as above
[7] = target: T7, N-terminally HA-tagged TRIP4^Δ168-219 (human); experiment: co-IP; HA-tagged TRIP4 variants precipitated from transfected 293T lysates with α-HA beads; lysis at 300 mM KCl, binding and washes at 150 mM KCl, 4 °C; western blot for endogenous ASCC3
[8] = target: T8, N-terminally HA-tagged TRIP4^C171A-C184A (human); experiment: as above
[9] = target: T9, N-terminally HA-tagged wild-type TRIP4 (human); experiment: as above
[10] = target: T10, TRIP4 (activating signal co-integrator 1/thyroid receptor-interacting protein 4), full length, produced in E. coli (human); experiment: SEC; analytical SEC for competitive binding, Superdex 200 3.2/300; 120 pmol ASCC3^HR with 360 pmol TRIP4 and/or ALKBH3 in 100 µl, 30 min on ice; fractions by SDS-PAGE, Coomassie; both purified
[11] = target: ASCC3 helicase region (ASCC3^HR, residues 401-2202) (human) (UniProt Q8N3C0); experiment: condition: only with TRIP4 pre-bound (120 pmol pre-formed ASCC3^HR-TRIP4 complex, 360 pmol ALKBH3); SEC; analytical SEC, Superdex 200 3.2/300; 120 pmol pre-formed ASCC3^HR-TRIP4 complex mixed with 360 pmol ALKBH3 in 100 µl, 30 min on ice; fractions by SDS-PAGE, Coomassie; both purified

Molecule | binding [1] | binding [2] | binding [3] | binding [4] | binding [5] | binding [6] | binding [7] | binding [8] | binding [9] | binding [10] | binding [11]
ASCC3 (activating signal co-integrator 1 complex subunit 3), endogenous (from UniProt Q8N3C0 1-2202) | binds | binds | binds | no binding | no binding | binds | no binding | no binding | binds |  | 
ALKBH3 (alpha-ketoglutarate/iron-dependent dioxygenase, DNA/RNA dealkylase), full length (enzyme, human, UniProt Q96Q83 1-286, looked up, ALKBH3, human, full length, amplified from a cDNA library of human HeLa cells, pETM-11; source: E. coli C2566, purified (Ni-NTA, TEV, heparin, SEC); not shown: His6, N-terminal, cleaved) MEEKRRRARVQGAWAAPVKSQAIAQPATTAKSHLHQKPGQTWKNKEHHLSDREFVFKEPQQVVRRAPEPRVIDREGVYEISLSPTGVSRVCLYPGFVDVKEADWILEQLCQDVPWKQRTGIREDITYQQPRLTAWYGELPYTYSRITMEPNPHWHPVLRTLKNRIEENTGHTFNSLLCNLYRNEKDSVDWHSDDEPSLGRCPIIASLSFGATRTFEMRKKPPPEENGDYTYVERVKIPLDHGTLLIMEGATQADWQHRVPKEYHSREPRVNLTFRTVYPDPRGAPW |  |  |  |  |  |  |  |  |  | no binding (tested: 360 pmol each in 100 µl) | no binding

From article PMC10076317, “Extended DNA threading through a dual-engine motor module of the activating signal co-integrator 1 complex” (Nature Communications, 2023)
